First the molecules themselves.
T1: UNK ZnF1-3 (human, UniProt Q9C0B0 31-174)
T1 sequence: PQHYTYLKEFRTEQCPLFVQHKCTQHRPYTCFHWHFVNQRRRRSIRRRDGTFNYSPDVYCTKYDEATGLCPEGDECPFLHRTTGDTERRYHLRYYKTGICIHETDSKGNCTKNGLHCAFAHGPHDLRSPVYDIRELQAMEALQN

B1: chr2:216981417:216981418:+_ENSG00000079246_ENST00000392132|hu_hu|hu_hu_hu_mus_True|68_88 (ssRNA)
RNA: GGGAGUUCUACAGUCCGACGAUCCUGAUACUGGUCCUUGCCAGCAAGGGGAUUGUCAGUGCCAUCUGUACCAAACAGGACUAACGCAAUCUCAUCUUUGCUCUCCGAAAAUACCUGUCGUUGGACAAACAUAGUCAUCACUUUCAACAGAGGAUUGAGCAUCA
B2: chrX:71549400:71549401:+_ENSMUSG00000019087_ENSMUST00000019231|mus_hu|mus_mus_mus_hu_False|8_98 (ssRNA)
RNA: GGGAGUUCUACAGUCCGACGAUCGCAGUAGGAAGAGCAAACCUUUCCAGUCCAGUGCGCUGCAGGGUGGGAAAGCAACAACACGGACACCGUCCCACCCUCAACCCCCCCACUGGCACAGGGUCACAUCUGGGUCAUCAAAGACAACAGAGGAUUGAGCAUCA
B3: chr2:153055717:153055718:-_ENSMUSG00000051413_ENSMUST00000056924|mus_hu|FALSE|FALSE (ssRNA)
RNA: GGGAGUUCUACAGUCCGACGAUCCUCAAGGGUCCCACAGUGGAGGUCCCUGAGCUACCUCCCUUCCGUGAGUGGGAAGAGUGAAGCCCAUGAAGAACUGAGAUGAAGCAAGGAUGGGGUUCCUGGGCUCCAGGCAAGGGCUGUCAACAGAGGAUUGAGCAUCA
B4: chr14:102449733:102449734:+_ENSG00000197102_ENST00000360184|hu_hu|FALSE|FALSE (ssRNA)
RNA: GGGAGUUCUACAGUCCGACGAUCCAAUACCUGAAGUUUCUCAUACUCAUCAUCCCAAGUCUGAAAAACUUCAAAGCAUGCUACCAUAACUUUUUCAAAUUCUUCAUAAGCAACAUGCAUCAAUUUCCUAGUGCCCAAUACUUUCAACAGAGGAUUGAGCAUCA
B5: chr9:109012998:109012999:+_ENSMUSG00000053646_ENSMUST00000072093|mus_hu|FALSE|FALSE (ssRNA)
RNA: GGGAGUUCUACAGUCCGACGAUCGUUCCCCAUCUGCACCGUGAACUCAGGCAAAGAGUCAGGUGCCUCUCGGAGGGCAUGGUGCCGUGGCAGGGGCUGCUCCACGGGGGGCUCGCAGUACAGGUGGUGCCGCGUCAGCGUCUUCAACAGAGGAUUGAGCAUCA
B6: 135070555_135070675_2121_3pUTR_ENSMUSG00000028165_ENSMUST00000029815|mouse|control|control (ssRNA)
RNA: GGGAGUUCUACAGUCCGACGAUCGACGAUUCUAUUCAAAGCCUCAAUUAAGAAAAGAUCAAUUAAAAGCAAAGCAUAUAAAGGUUUGUUGCGGGGGGGGGGGGGGGGGAAGAGAAAUAGAGAGUAAAAGCAGCAACCUUUGCUCAACAGAGGAUUGAGCAUCA
B7: 19964705_19964825_1172_3pUTR_ENSMUSG00000020152_ENSMUST00000000137|mouse|control|control (ssRNA)
RNA: GGGAGUUCUACAGUCCGACGAUCCACCAAGUUUCUCCAGCACACGGACACCCUUUUCUUGGUACUCUUGUCUGGUCAUCCAAAAGUUGUCUUUGUCUUUCAUGAUGUCUGCUAGGACUGCGCCACCCAAGAACACCAUGUGCUCAACAGAGGAUUGAGCAUCA
B8: chr16:36023280:36023281:+_ENSMUSG00000022905_ENSMUST00000004054|mus_hu|FALSE|FALSE (ssRNA)
RNA: GGGAGUUCUACAGUCCGACGAUCUGUCUGAAUAUCAUCCCCUGUGACAAUGUUUCCCACAGCUCGCAAAGCAGGAGAAACCACUUUAUAAUCAUUAUGCAUCAGCAGUUCCACAAGUCUCCUACAUACUCCCGCAUCGAUGACCAACAGAGGAUUGAGCAUCA
B9: chr12:89743083:89743084:-_ENSG00000139318_ENST00000308385|hu_mus|FALSE|FALSE (ssRNA)
RNA: GGGAGUUCUACAGUCCGACGAUCCUUUCACGUAGACUGCAGGGAGUCCACCUGGUAGACGUUCUGGUUGGAGGGCGUGGUGAAGUACAGCUGCGGAGUGGGGACACGGUUGUCACAAGGGCUGCUCAGUCCCAGGGUCCUUUCCAACAGAGGAUUGAGCAUCA
B10: chr6:38652254:38652255:-_ENSG00000124767_ENST00000373365|hu_hu|hu_hu_hu_mus_False|8_28 (ssRNA)
RNA: GGGAGUUCUACAGUCCGACGAUCCGAGAACUUCAUAGCAGGGAAGUCAAGCUUCUGCAGGAGGGUCAGUCCAAGAACCCUCGUAUAAAAAUCCAGGGACUUCUUAGGAUCCUUCACUCUUAGCAUCGUCUGCUGCAGUAGAAACAACAGAGGAUUGAGCAUCA
B11: chr7:91030085:91030086:-_ENSMUSG00000070462_ENSMUST00000094216|mus_hu|FALSE|FALSE (ssRNA)
RNA: GGGAGUUCUACAGUCCGACGAUCAAAUACUCCAGUACAUGCAAGGUAAAAACUUGACGUUGGGGGAAAAAAAAAUCACUCUAUAGUGUAAAUUAAAAAAACACACGCUCACAGUAGCUUCCCCCCAUUUGCAAAUCACAUGGCCAACAGAGGAUUGAGCAUCA
B12: chr15:66811301:66811302:+_ENSG00000174442_ENST00000446801|hu_mus|FALSE|FALSE (ssRNA)
RNA: GGGAGUUCUACAGUCCGACGAUCCUCAGCUCCUAGCCAACAGGUACCUUCAGGAUCUGAACCGUCACAUCUCACCCAAAGAGGAGGAAGGGCUGUCACUGGCUGCUUAAUCUUCAGAUGAGUCAUAUUAGGAUUGUGAGCCAUCAACAGAGGAUUGAGCAUCA
B13: chr7:117185563:117185564:+_ENSMUSG00000066232_ENSMUST00000084731|mus_hu|FALSE|FALSE (ssRNA)
RNA: GGGAGUUCUACAGUCCGACGAUCGGGCUUCAGAUUCUUCCAGGUGAGAGCAUGAGAAACUCCUUGAUUAAUAUAAUUUAAUGUCUGUUGUAAAACUCGAGGAGCCAUAUAUUGCUUCUCCUUGUACUGAUAUAACACCUUCAACAACAGAGGAUUGAGCAUCA
B14: chr7:135612270:135612271:-_ENSG00000105887_ENST00000393085|hu_mus|hu_hu_hu_mus_False|48_48 (ssRNA)
RNA: GGGAGUUCUACAGUCCGACGAUCGUUUUUUUCUGAGAUGUUAAAUAGUACUUCAGUGGAAAACAAAACUUAACCUUUUAUUAAUGCAUGUAGUACCAAAAGCAGACAUUUUAGCUUCAUUUAUUCAAAAAUAUUAACAUUAAGCAACAGAGGAUUGAGCAUCA
B15: chr14:78183846:78183847:+_ENSG00000119705_ENST00000557342|hu_hu|hu_hu_hu_mus_False|58_78 (ssRNA)
RNA: GGGAGUUCUACAGUCCGACGAUCUCUCAGAAAUCUUUCUUCAUCAGAUGUUUGAGCUGUUUGCGGAGCCUUUGCUCUUCUAGUGUGAACGUGGAUCUAUGGGAGGGAAAGCACUGUCAGAAAAGGUAAUUUUUUUUUUAAAGACAACAGAGGAUUGAGCAUCA
B16: chr14:76904430:76904431:+_ENSMUSG00000022010_ENSMUST00000022587|mus_mus|mus_mus_mus_hu_True|1_28 (ssRNA)
RNA: GGGAGUUCUACAGUCCGACGAUCUGCAGCCAAAAACACCCUCGUGGAAAAAAAGAGGGAACACCAGCAGCCUUGUAUAAGCUAGAUAAAAUCUUCUGGCUUUCCGCAGCUCAGGGCGAAACAGAAAACGGCAGCCCUCGAGUGCAACAGAGGAUUGAGCAUCA
B17: chr15:27661301:27661302:-_ENSMUSG00000022263_ENSMUST00000090247|mus_hu|FALSE|FALSE (ssRNA)
RNA: GGGAGUUCUACAGUCCGACGAUCAACCCCAACACACACACAAAACCAUAAAGCUCACCAUACGAAGUAUGUGCUUUUUCUAUAUAUUUAUUACAGGUACAACAGAGGUCUUCAUAAAUAGUUGCAUAAAAUGUUAAAGCCACACAACAGAGGAUUGAGCAUCA
B18: 113753070_113754672_3543_CDS_ENSMUSG00000042426_ENSMUST00000038574|mouse|control|control (ssRNA)
RNA: GGGAGUUCUACAGUCCGACGAUCUAACUCCUGCUUCACAUCCUCGAGUGUCAACAGUGACGUUCUGUUUAGGAAGUUCCUCUGGCAAUAUGAGAUCUCAGAGCGGAAGCCUCCUUCUUGCUGGGCUUUCUUCCACCCUAGAUACAACAGAGGAUUGAGCAUCA
B19: chr11:44375045:44375046:+_ENSMUSG00000019189_ENSMUST00000019333|mus_hu|FALSE|FALSE (ssRNA)
RNA: GGGAGUUCUACAGUCCGACGAUCACAGAGGGCCACAAGAAACUCCAGCAGGCGGUAAGUGCCAUUCACAUAGUAGAUGACAUCAUCCAUGUUUUCCACUGGCUCUUUUCUGAAUUCCUCAACCAUAAAUAAGACAUAAAUAAACAACAGAGGAUUGAGCAUCA
B20: chr10:131964826:131964827:+_ENSG00000108010_ENST00000331244|hu_hu|FALSE|FALSE (ssRNA)
RNA: GGGAGUUCUACAGUCCGACGAUCACUGGAAUAGGCUUUGAGUCCCUGUCGAACCUCUUCAUCUGAGAAGAUAUCAAAACUGCUAAACUGAAUAUUAUGUUUGUGAAGAAUUUCCACCAUCUGCUUGCUGAAACCACAGCGUGGCAACAGAGGAUUGAGCAUCA
B21: chr10:108335898:108335899:-_ENSG00000108018_ENST00000263054|hu_hu|FALSE|FALSE (ssRNA)
RNA: GGGAGUUCUACAGUCCGACGAUCACUCUUUCGCAUACAGUAUAUGUUUCCAGGUGGGAAAAGGCAGGGAUAUUUGAAAAAGGCAGGUUCUAGAGGAAAAGACAAAGAUACAUGAAACUGAACCCUGCUGUGCAGGAUGCAGCACAACAGAGGAUUGAGCAUCA
B22: chr3:19126325:19126326:-_ENSMUSG00000069094_ENSMUST00000091314|mus_mus|motif|central (ssRNA)
RNA: GGGAGUUCUACAGUCCGACGAUCGCUUGCUCUACAUAAGACCACUGAAAACAACUUACAAAAGUGGAAUGUUUUAAGUCGGAAAUUAGUCCUUAAAUUUUAUCCUAGAAAACAUCUACUCACAUCAAAAGGUCCGCCAAAGGGCAACAGAGGAUUGAGCAUCA

This is one part of the list.

The target in this assay is T1, UNK ZnF1-3. The assay is described as follows: nsRBNS (natural sequence RNA bind-n-seq); RBNS binding buffer (assumed for nsRBNS): 25 mM Tris pH 7.5, 150 mM KCl, 3 mM MgCl2, 0.01% Triton X-100, 500 ug/ml BSA, 20 U/ml SUPERase-In, 4 C; UNK is unkempt and MSI1 is Musashi-1; names of the RNAs are library labels; protein concentration not given here; high values mean tight binding.
In the case of B1, the binding signal was determined as 0.95 enrichment R.

As to B2, the binding signal worked out at 0.928 enrichment R.

B3: the binding signal was 0.999 enrichment R.

The molecule B4 returned a binding signal of 0.609 enrichment R.

Molecule B5 showed a binding signal of 0.43 enrichment R.

For B6, the binding signal was 0 enrichment R.

Regarding B7, the binding signal was found to be 0.735 enrichment R.

B8: the binding signal came out at 1.22 enrichment R.

Molecule B9 showed a binding signal of 1.04 enrichment R.

Turning to B10, the binding signal turned out to be 0.636 enrichment R.

The molecule B11 displayed a binding signal of 2.29 enrichment R.

For the molecule B12, the binding signal was 1.52 enrichment R.

Molecule B13 gave a binding signal of 1.43 enrichment R.

Molecule B14 came in with a binding signal of 0.738 enrichment R.

For B15, the binding signal was found to be 2.63 enrichment R.

Take B16: the binding signal turned out to be 1.58 enrichment R.

For B17, the binding signal turned out to be 2.04 enrichment R.

For the molecule B18, the binding signal is 0.523 enrichment R.

As to B19, the binding signal stood at 1.23 enrichment R.

Turning to B20, the binding signal stood at 1.03 enrichment R.

Molecule B21 yielded a binding signal of 1.63 enrichment R.

As for B22, the binding signal stood at 1.28 enrichment R.

The values are drawn from publication PMC12136788.
